# Reference: PubChem BioAssay AID1508642 (National Center for Advancing Translational Sciences (NCATS), 2021)
# Out of some 43,000 compounds screened, about 200 (0.47%) were called active. Another 12% or so got no clear call; they are omitted. Calls follow the shape of the dose curve; as a rule, active = well fitted cell-killing curve with a large enough effect; inconclusive = small, poorly fitted or top-dose-only effect, or effect the other way; inactive = flat fitted curve, though single readings scatter. This is one part of the list.
# Test: Cell viability qHTS assay in S16 Pmp22-F2sN cells; also: nearly all actives have a fitted effect of over 65% in size
# Conditions: S16 Pmp22-F2sN Schwann cells (luciferase reporters placed in the Pmp22 gene) viability, CellTiter-Glo, 24 h; series mostly up to 57.5 µM; activity change, negative = cytotoxicity: at the top concentration
# How it was run: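 S16 Schwann cells carrying the Pmp22-F2sN reporter, seeded in 1536-well format, were exposed to library compounds for 24 h at 37C. Viability was read as CellTiter-Glo luminescence after 15 min at room temperature.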
# % is scaled to controls: 0 for no effect and ±100 for the full control effect.
row,Structure (SMILES),"activity change, negative = cytotoxicity"
1,COc1ccccc1N1CCN(C(=O)Cn2ncc3c([nH]c4ccccc43)c2=O)CC1,inactive: 16.3%
2,O=C(CCc1nc(CN2CCN(S(=O)(=O)c3ccc(F)cc3)CC2)no1)N1CCCCC1,inactive: -2.66%
3,CCc1ccc(-n2c(SCc3ccccc3F)nc3[nH]ncc3c2=O)cc1,inactive: -25%
4,O=C(c1ccc2c(c1)N(Cc1ccccc1F)C(=O)c1ccccc1S2(=O)=O)N1CCCCC1,inactive: 21.2%
5,COc1cccc(NC(=O)CSC2=Nc3ccccc3N=C(c3ccc(F)cc3)C2)c1,inactive: -17.3%
6,CCc1ccc(C(=O)c2cn(CC(=O)NCCc3ccc(OC)c(OC)c3)c3nc(C)ccc3c2=O)cc1,inactive: 7.04%
7,COc1ccc(OC)c(S(=O)(=O)N2CCC(c3ccncc3)CC2)c1,inactive: 3.02%
8,CCOCCCNC(=O)NC(C)c1c(-n2cccc2)sc2c1CCN(CC)C2 (configuration not stated),inactive: 0.915%
9,COc1ccc(C(=O)NCCn2cc(SCC(=O)Nc3cccc(C)c3)c3ccccc32)cc1,inactive: 3.68%
10,CCOC(=O)c1c(N)n(-c2cccc(OC)c2)c2nc3ccccc3nc12,inactive: 2.54%
11,Cc1cccc(-n2ncc3c(Nc4ccc(Oc5ccc(Cl)cc5)cc4)ncnc32)c1,inactive: 16.7%
12,COCCc1nn2c(=O)cc(COC(=O)c3ccc(OC)c(OC)c3)nc2s1,inactive: 3.26%
13,Cc1oc2ncn(CC(C)C)c(=O)c2c1C(=O)N1CCN(c2cccc(C(F)(F)F)c2)CC1,inactive: -0.477%
14,CCOC(=O)C1CCN(C(=O)Cn2c(=O)cc(C)c3c(C)nn(C)c32)CC1,inactive: 0.501%
15,COc1ccc(CNC(=O)c2cc3c(=O)[nH]c4ccccc4c3s2)cc1,inactive: -13.1%
16,CCOC(=O)c1ccccc1NC(=O)CCOc1ccccc1,inactive: 0.326%
17,Cc1cccc(N2CCN(C(=O)NCc3noc4ccccc34)CC2)c1C,inactive: -15.8%
18,Cc1cc(C)c(CSc2nnc(C)n3c2cc2occc23)c(C)c1,inactive: -1.18%
19,CCN(Cc1ccccc1)C(=O)c1nc(-c2cccc(F)c2)n2c1CCCCC2,inactive: -6.43%
20,COCCCNC(=O)C1CCCN(C(=O)c2cnn(-c3ccc(F)cc3)c2-n2cccc2)C1 (configuration not stated),inactive: 1.19%
21,Cc1ccc(SCc2nc(-c3ccc(C(=O)NCc4ccc(Cl)cc4)cc3)oc2C)cc1,inactive: 15.6%
22,O=C(NC1CCCCC1)c1cc(Nc2cccc(C(F)(F)F)c2)nc2ccccc12,inactive: 6.15%
23,COc1cc(C(=O)Nc2nc3nc(-c4ccccc4)cc(=O)n3[nH]2)cc(OC)c1OC,inactive: 8.38%
24,Cc1ccn2c(=O)cc(CSc3nnc(NC(=O)c4ccccc4Cl)s3)nc2c1,inactive: -0.0107%
25,CCn1cc(C(=O)N2CCN(c3cc(C)ccc3C)CC2)c(=O)c2cc(S(=O)(=O)N3CCOCC3)ccc21,inactive: 0.794%

row,Structure (SMILES),"activity change, negative = cytotoxicity"
1,COc1ccc(Cl)cc1NC(=O)Cn1c(=O)n(Cc2ccco2)c(=O)c2cccnc21,inactive: 1.92%
2,O=C(NC1CCCCC1)c1cc2c(Cl)nc3ccccc3c2s1,inactive: 10.8%
3,CCOc1ccc(NC(=O)C(NS(=O)(=O)c2cccc3nsnc23)c2ccccc2)cc1 (configuration not stated),inactive: 0.539%
4,COc1ccccc1CNC(=O)C(=O)NCC(c1ccco1)S(=O)(=O)c1cccs1 (configuration not stated),inactive: -6.77%
5,OCCCc1nc2ccccc2n1CCCCOc1ccccc1,inactive: -21.6%
6,Cc1cccc(-c2noc(CN(C(=O)COc3ccc(Br)cc3C)C(C)C)n2)c1,inactive: 6.99%
7,Cc1ccc(CCNC(=O)c2cc3sccc3n2Cc2ccc(C)cc2)cc1,inactive: 5.87%
8,Cc1c(Cl)ccc2sc(NC(=O)c3ccc(S(=O)(=O)N4CCCc5ccccc54)cc3)nc12,inactive: 11.8%
9,CCCc1cnc2c(c1SCC(=O)N(C)c1ccccc1)c(=O)n(C)c(=O)n2C,inactive: 1.23%
10,COc1cccc(NC(=O)C2CCCN(S(=O)(=O)c3c(C)[nH]c(=O)[nH]c3=O)C2)c1 (configuration not stated),inactive: -3.69%
11,O=C(Nc1ccc(Br)c2cccnc12)c1cccc2ccccc12,inactive: 14.4%
12,CCN(c1cc(C)cc(C)c1)S(=O)(=O)c1nnc(NC(=O)C2CCCCC2)s1,inactive: 1.12%
13,Cc1cc(C)cc(NC(=O)CCC(=O)N2Cc3ccccc3Oc3ncccc32)c1,inactive: -7.97%
14,CCOc1ccc(NC(=O)Cn2c(=O)n(Cc3ccco3)c(=O)c3oc4ccccc4c32)cc1,inactive: -0.338%
15,CCc1ccccc1NC(=O)c1nnn(-c2ccc(F)cc2)c1C,inactive: 20.2%
16,CC1CCN(S(=O)(=O)c2ccc3c(c2)oc(=O)n3CC(=O)NCc2ccc(F)cc2)CC1,inactive: -16.3%
17,Cc1cc(C)cc(-n2c(SCC(=O)N3CCCCC3)nc3c([nH]c4ccccc43)c2=O)c1,inactive: 16.5%
18,CCOc1cc(-c2ccc(OC(=O)c3ccccc3F)cc2)cc(=O)c2c(C)oc(C)c12,inactive: 11.5%
19,Cc1cc(C)nc(NS(=O)(=O)c2ccc(NC(=O)COc3ccc(Cl)cc3C)cc2)n1,inactive: 1.48%
20,CCOc1ccc(C(=O)Nc2cc(-c3nc4ccccc4o3)ccc2C)cc1Cl,inactive: -0.493%
21,O=C(CSc1nccn1Cc1ccccc1)NCc1ccc(F)cc1,inactive: 3.77%
22,CC1CN(C(=O)Nc2ccc(C(=O)NCCc3ccccc3)cc2)c2ccccc2S1 (configuration not stated),inactive: -18.3%
23,Clc1cccc(N2CCN(c3nc4ccccc4n4cnnc34)CC2)c1,inactive: 8.14%
24,COc1ccc(NC(=O)CCc2nnc3n(C)c(=O)c4sccc4n23)cc1,inactive: 6.16%
25,Cc1ccc2nc(-c3ccsc3)c(Nc3ccccc3C)n2c1,inactive: 5.66%

row,Structure (SMILES),"activity change, negative = cytotoxicity"
1,Cc1nc2nncn2c(N2CCN(c3ccccc3)CC2)c1C,inactive: -4.2%
2,COc1ccccc1/C=C/c1nc(C#N)c(N2CCCCC2)o1,inactive: -29.5%
3,COCCNC(=O)c1cnn(-c2ccc(C)cc2C)c1C1CCN(C(=O)OC(C)(C)C)CC1,inactive: -2.51%
4,Cc1ccccc1Cn1c(C(=O)O)c(CNCc2cccc(F)c2)c2ccccc21,inactive: 1.34%
5,COC(=O)c1scc(-c2ccccc2)c1S(=O)(=O)Nc1ccccc1,inactive: -6.13%
6,Cn1cc(CN(C(=O)Nc2ccc(Cl)c(Cl)c2)C2CCCCC2)c2ccccc21,inactive: 19.9%
7,Cc1ccc(-c2cc(C(F)(F)F)n3nc(C(=O)Nc4ccc(Cl)cc4Cl)cc3n2)cc1,inactive: 5.46%
8,O=C1c2ccccc2C(=O)C1(c1ccccc1)N1CCN(c2cccc(Cl)c2)CC1,inactive: 3.9%
9,O=C(NCc1ccc(F)cc1)c1ccc(CSCc2cccc(Cl)c2)o1,inactive: 0.557%
10,COCCNC(=O)Cc1ccc(NC(=O)N2CCCCc3ccccc32)cc1,inactive: 28.1%
11,CC(=O)Nc1ccc(S(=O)(=O)NCC2CCC(C(=O)NCCc3ccccc3)CC2)cc1 (configuration not stated),inactive: 0.46%
12,Cc1ccc(CNC(=O)c2cc3sccc3n2Cc2ccc(Cl)cc2)cc1,inactive: 12.9%
13,CCCn1c(=O)c2sccc2n2c(CCCC(=O)NCCc3ccc(Cl)cc3)nnc12,inactive: 19.5%
14,CC(CCc1ccccc1)NC(=O)Cn1ncc2c3ccccc3n(Cc3ccc(F)cc3)c2c1=O (configuration not stated),inactive: -2.55%
15,COc1cccc(N2CC(NC(=O)C(c3ccccc3)c3ccccc3)CC2=O)c1 (configuration not stated),inactive: -4.04%
16,Cc1ccc(NC(=O)CC(C)S(=O)(=O)c2ccc3c(c2)NC(=O)CO3)c(C)c1 (configuration not stated),inactive: 7.88%
17,COCC(=O)Oc1c(Sc2ccc(C)cc2)c(C)nn1C(C)(C)C,inactive: 2.69%
18,COc1cc(-c2ccno2)ccc1S(=O)(=O)N1CCN(c2cc(C)ccc2C)CC1,inactive: 8.33%
19,COc1ccc(NS(=O)(=O)c2cc3[nH]c(=O)c(=O)[nH]c3cc2C)cc1Cl,inactive: 10.7%
20,CCC(=O)N1CCc2cc(Br)cc(S(=O)(=O)CCC(=O)NCCc3ccc(OC)c(OC)c3)c21,inactive: -0.204%
21,CCOc1ccc(/C=C/c2nc(C#N)c(N3CCN(c4ccc(OC)cc4)CC3)o2)cc1,inactive: 0.548%
22,Cn1cc(S(=O)(=O)N2CCCCCC2)cc1C(=O)N1CCN(c2ccc(F)cc2)CC1,inactive: 7.84%
23,CCOc1ccc(NC(=O)C(=O)NCCc2csc(-c3ccc(F)cc3)n2)cc1,inactive: 2.13%
24,CCN(CC)CC(C)CNC(=O)CN1C(=O)CSc2ccc(S(=O)(=O)N3CCOCC3)cc21 (configuration not stated),inactive: 12.8%
25,CN(C(=O)C1CCCN(c2ncnc3c2nc2n3CCCCC2)C1)c1ccccc1F (configuration not stated),inactive: -18.1%

row,Structure (SMILES),"activity change, negative = cytotoxicity"
1,COc1cc(OC)c(NC(=O)CN2C(=O)CCn3nc(-c4cccn4C)cc32)cc1Cl,inactive: 6%
2,CC(C)OCCCn1c(SCc2ccccc2C#N)nc2c(sc3ccccc32)c1=O,inactive: 10.9%
3,Cc1c(Cl)cccc1NC(=O)CSc1ncnc2c1sc1ccccc12,inactive: 3.42%
4,COc1cc(NC(=O)CCn2c(-c3ccccc3)cc(C(C)=O)c2C)cc(OC)c1,inactive: -14.3%
5,Cc1cc(C)c(NC(=O)CSc2ccnc(=O)[nH]2)c(C)c1,inactive: -1.16%
6,O=C(COc1ccccc1)NCc1ccc2c(c1)CCN2C(=O)c1ccc(F)cc1,inactive: 0.0237%
7,Cc1ccc(-n2ncc3c(N4CCCCCC4)ncnc32)cc1,inactive: -7.96%
8,Cc1cc(OCC(=O)Nc2ccc(-c3nc4cc(Cl)ccc4o3)cc2)cc(C)c1Cl,inactive: 4.6%
9,NS(=O)(=O)c1ccc(CCNC(=O)C2COc3ccccc3C2)cc1 (configuration not stated),inactive: 2.65%
10,CCc1ccc(C2CC(=O)c3c([nH]c(C(=O)OCC4CCCCC4)c3C)C2)cc1 (configuration not stated),inactive: 1.02%
11,CCCC(=O)Nc1cc(C)c(O)c(-c2nc3ncccc3o2)c1,inactive: 24.8%
12,COc1ccc(Cl)cc1NC(=O)c1ccc2nc(Cc3ccccc3)oc2c1,inactive: 7.71%
13,CCCCNC(=O)C1CCCN(Cc2nc(-c3ccc(Cl)cc3)oc2C)C1 (configuration not stated),inactive: 7.86%
14,CCc1ccc(C(=O)c2cn(CC(=O)Nc3ccc(F)c(F)c3)c3cc(OC)c(OC)cc3c2=O)cc1,inactive: -23.9%
15,Cc1ccc(-n2nc(C(=O)N3CCN(c4cc(Cl)ccc4C)CC3)c(=O)n(C)c2=O)cc1,inactive: -4.39%
16,CCOc1cccc2cc(-c3nc(-c4ccccc4C)no3)c(=O)oc12,inactive: -1.85%
17,Cc1ccc(Oc2c(C(F)(F)F)oc3c(CN4CCCCC4)c(O)ccc3c2=O)cc1,inactive: 9.6%
18,O=C(Nc1ccc(Cl)cc1)C1CCCN(S(=O)(=O)c2ccc3[nH]c(=O)ccc3c2)C1 (configuration not stated),inactive: 10.2%
19,Cc1cc(F)ccc1NC(=O)CCS(=O)(=O)c1ccc2c(c1)NC(=O)CO2,inactive: 0.475%
20,CCOC(=O)c1cccc(NC(=O)c2oc3c(c2C)-c2[nH]ncc2CC3)c1,inactive: -0.0926%
21,CCC(C(=O)Nc1ccc(C(=O)OC)cc1)n1c(=O)c(-c2ccccc2NC(C)=O)nc2ccccc21 (configuration not stated),inactive: -2.57%
22,COc1cc(CN(C(=O)Nc2ccccc2)c2ccccn2)cc(OC)c1OC,inactive: -0.692%
